Data as given in PMC9574860, “Chemical Toolkit for PARK7: Potent, Selective, and High-Throughput” (Journal of Medicinal Chemistry, 2022).
Among all 7,900 compounds or so, about 400 (5.1%) showed an effect of 50% or more. The list shows a part of the results.

The compounds below were run against Parkinson's disease protein 7 (PARK7/DJ1) (human, UniProt Q99497) (assay: primary screen, percent inhibition; read as competition with a fluorescent probe by fluorescence polarization; higher = more effect of the substance). Conditions: 100 µM.
Sequence of Parkinson's disease protein 7 (PARK7/DJ1) (Q99497 whole entry, looked up, the tested form may be a part): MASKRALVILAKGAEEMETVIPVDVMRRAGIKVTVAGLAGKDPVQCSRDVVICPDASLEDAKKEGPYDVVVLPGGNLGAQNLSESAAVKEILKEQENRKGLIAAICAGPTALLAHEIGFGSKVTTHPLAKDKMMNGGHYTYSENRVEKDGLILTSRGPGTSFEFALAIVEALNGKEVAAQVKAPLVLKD
Outline: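 Covalent fragments at 100 μM final were incubated 2 h with 0.2 μM PARK7, then 20 nM probe JYQ-107 added for a further 2 h. Fluorescence polarization read at 480/520 nm; relative FP loss versus reference controls gave remaining enzyme activity.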

Compared with `COc1ccc(CNS(=O)(=O)C=Cc2ccccc2)cc1`, `N#Cc1ccc(NS(=O)(=O)C=Cc2ccccc2)cc1` is higher in Inhibition %: -1.67% for the first, 10.5% for the second.

Going from `CN1CCCC(CCl)C1.Cl` (stereo not shown) to `CCOC(=O)C1CCCCN1C(=O)CCl` (stereo not shown), the Inhibition % rises from 4.37% to 14.2%.

Compared with `C=CC(=O)NCc1cnc(N2CCOCC2)c(F)c1`, `C=CC(=O)Nc1cccc(N2CCOCC2)c1` is lower in Inhibition %: 13.6% for the first, 11.1% for the second.

Going from `O=C(Nc1ccccc1)C1CCN(C2CCOC2=O)CC1` (stereo not shown) to `O=C1OCCC1N1CCCN(C(=O)CC2CCCC2)CC1` (stereo not shown), the Inhibition % rises from 6.25% to 17.6%.

Compared with `N#CSc1ccc2c(c1)CCCN2`, `OB(O)c1cccc2c1CCCC2` is lower in Inhibition %: 27.6% for the first, 9.29% for the second.

Compared with `C=CC(=O)N1CC(=O)NC2CCCCC21` (stereo not shown), `C=CC(=O)N1CCCCC1COC(=O)N1CCC(C)CC1` (stereo not shown) is lower in Inhibition %: 24.2% for the first, 12% for the second.

Compared with `N#Cc1cc(N2CCC(CF)CC2)ccn1`, `N#Cc1ccc(N2CCC(CF)CC2)cn1` is lower in Inhibition %: 6.88% for the first, 5.8% for the second.

Compared with `O=C(CCl)NCC1CCS(=O)(=O)C1` (stereo not shown), `COCCN(C(=O)CCl)C1CCS(=O)(=O)C1` (stereo not shown) is higher in Inhibition %: 6.97% for the first, 9.33% for the second.

First: N#Cc1cc2ccccc2[nH]1
Second: N#Cc1cc(N2CCCC2)c2ccccc2n1
The Inhibition % of the first is lower: -0.598% for the first, 3.59% for the second.

Going from `CC(O)Cn1c(S)nc2cc(Cl)ccc2c1=O` (stereo not shown) to `CCNC(=O)c1ccc2c(=O)n(C)c(S)nc2c1`, the Inhibition % rises from 2.03% to 4.44%.

First: C=CC(=O)N1CCC(C2CCCO2)C1 (stereo not shown)
Second: C=CC(=O)N1CCN(C(=O)C2CCCO2)CC1 (stereo not shown)
The Inhibition % of the first is lower: 2.87% for the first, 7.33% for the second.

First: O=C(OCc1ccccc1)N1C[C@@H]2O[C@@H]2C1
Second: C=CC(=O)NC(=O)Nc1ccccc1
The Inhibition % of the first is higher: 15.2% for the first, 2.77% for the second.

Compared with `CC1(C)C(=O)NC1C1CCN(CC(C)(O)C(F)(F)F)CC1` (stereo not shown), `CC1(C)C(=O)NC1C1CCNCC1` (stereo not shown) is lower in Inhibition %: 6.49% for the first, 0.305% for the second.

Compared with `C=CC(=O)NCc1ccc2c(=O)cc[nH]c2c1`, `COc1ccc(CNC(=O)CCl)cc1C(=O)O` is higher in Inhibition %: 18.3% for the first, 21.9% for the second.

Compared with `CC1(C)NC1c1ccccc1` (stereo not shown), `CC1(C)C(=O)NC1c1cccnc1` (stereo not shown) is lower in Inhibition %: 6.12% for the first, 4.25% for the second.

Going from `N#Cc1cccc(NC(=O)CCCl)c1` to `CN(CC(=O)Nc1cccc(Cl)c1)C(=O)CCl`, the Inhibition % rises from 9.44% to 93.8%.

First: Cc1ccccc1C(C)NC(=O)Cn1cnc(C#N)n1 (stereo not shown)
Second: CC(C)c1ccc(NC(=O)Cn2cnc(C#N)n2)cc1
The Inhibition % of the first is lower: 3.4% for the first, 22.6% for the second.

First: CCc1sc(C(=O)NNC(=O)CCl)cc1C
Second: Cc1ccc(NC(=O)CCl)c(Br)c1
The Inhibition % of the first is higher: 13% for the first, 2.41% for the second.

Compared with `Cc1csc(C2CN(C3CCOC3=O)CCO2)n1` (stereo not shown), `Cc1ccc(C(=O)N2CCCC(C3OCCO3)C2)c(O)c1` (stereo not shown) is lower in Inhibition %: 12.4% for the first, -1.1% for the second.

First: Nc1cccc(NC(=O)Oc2ccccc2)c1
Second: O=C(CCl)Nc1ccc2ccccc2c1
The Inhibition % of the first is lower: 39.4% for the first, 55.8% for the second.

Going from `N#Cc1ncn(CC(=O)N2CCCc3ccccc32)n1` to `N#Cc1ncn(CCC(=O)N2CCc3ccccc32)n1`, the Inhibition % rises from 4.05% to 9.27%.

First: N#Cc1ncn(CCC23CC4CC(CC(C4)C2)C3)n1
Second: Cl.NCC12CC3CC(CC(Cl)(C3)C1)C2
The Inhibition % of the first is higher: 10.6% for the first, 6.62% for the second.

Going from `CCOc1ccc(S(=O)(=O)n2ccc(C)n2)cc1` to `Cc1ccnc(NS(=O)(=O)c2ccc(S(=O)(=O)F)cc2)n1`, the Inhibition % rises from 6.55% to 36.3%.

Going from `CC1(C)OB(c2ccc(N)c(CO)c2)OC1(C)C` to `CC1(C)OB(c2ccnc(F)c2)OC1(C)C`, the Inhibition % falls from 7.71% to 2.29%.

Compared with `Cc1ccn(CCC2CCOC2=O)c(=O)c1C#N` (stereo not shown), `Cc1c(C=C2COc3ccccc3C2=O)cc(C#N)n1C` is lower in Inhibition %: 2.39% for the first, 1.53% for the second.

Compared with `O=S(=O)([O-])C=Cc1ccccc1.[Na+]`, `CNS(=O)(=O)C=Cc1ccc(Cl)cc1` is lower in Inhibition %: 7.5% for the first, -0.344% for the second.

Going from `O=C(CCl)Nc1cc(C(=O)O)cc(C(=O)O)c1` to `O=C(CCl)Nc1ccc(Cl)cc1Cl`, the Inhibition % rises from 1.39% to 18%.

First: Cc1nn(C(C)C)cc1B1OC(C)(C)C(C)(C)O1
Second: CN(C)C(=O)c1ccc(B2OC(C)(C)C(C)(C)O2)c(Cl)c1
The Inhibition % of the first is higher: 3.79% for the first, 2.75% for the second.

Going from `C=CC(=O)NC1CCCC1C(=O)NC` (stereo not shown) to `C=CC(=O)N[C@@H]1CCC[C@H]1OC(F)F`, the Inhibition % rises from 9% to 15.7%.

Going from `C=CC(=O)N1CCCC(c2nc(N(C)C)no2)C1` (stereo not shown) to `C=CC(=O)N1CCC(c2nc(C3CC3)no2)(C(F)(F)F)C1` (stereo not shown), the Inhibition % falls from 10% to 4%.

Going from `CCNC(=CC#N)c1ccc(Cl)cc1` to `C=C(C(=O)O)c1ccc(Cl)cc1`, the Inhibition % falls from 13.1% to 2.47%.

Compared with `O=C1NCCc2ccc(S(=O)(=O)OCC(F)(F)F)cc21`, `Cc1cc(F)ccc1OS(=O)(=O)c1cnn(C)c1` is lower in Inhibition %: 14.7% for the first, 9.05% for the second.

First: O=C(CCl)Nc1ccc(-c2nnc3n2CCCCC3)cc1
Second: CC(C)(C)c1ccc(NC(=O)CCl)cc1
The Inhibition % of the first is lower: 25.1% for the first, 100% for the second.

Compared with `C=CC(=O)N1CSCC1C(=O)N(C)CC` (stereo not shown), `C=CC(=O)N1CCOCC1c1c(C)nn(C)c1C` (stereo not shown) is higher in Inhibition %: 8.71% for the first, 12.6% for the second.

Compared with `C=CC(=O)N1CCCCC1c1nc2ccccc2o1` (stereo not shown), `C=CC(=O)N1CCCN(Cc2ccc(F)cc2)CC1` is lower in Inhibition %: 7.43% for the first, 7.34% for the second.

Going from `Cc1ccc(S(=O)(=O)C(C#N)=Cc2cccnc2)cc1` to `COc1ccc(C=C(C#N)C(N)=O)cc1`, the Inhibition % rises from 1.9% to 7.92%.

First: CC1(C)OB(C2=CCCCOC2)OC1(C)C
Second: CC1(C)OB(c2ccc(C3(N)CCCC3)cc2)OC1(C)C.Cl
The Inhibition % of the first is higher: 29.2% for the first, 2.49% for the second.

Compared with `C=CC(=O)NCC1CCSCC1`, `C=CC(=O)NCC1CCN1C(C)(C)C` (stereo not shown) is higher in Inhibition %: 2.54% for the first, 23.2% for the second.

Compared with `N#CC(=Cc1ccsc1)C(=O)NCc1ccco1`, `CC(C)NC(=O)C(C#N)=Cc1ccnc(O)c1` is lower in Inhibition %: 12.4% for the first, 2.32% for the second.

Compared with `CNC(=O)C(NC(=O)CCl)c1ccccc1` (stereo not shown), `Cl.O=C(CCl)Nc1ccccn1` is higher in Inhibition %: 8.83% for the first, 14.1% for the second.

Going from `CC1(C)OB(CC2CC3(CCNCC3)C2)OC1(C)C.Cl` to `CC1(C)OB(c2cnc(C3CC3)cc2C#N)OC1(C)C.Cl`, the Inhibition % rises from 0.486% to 5.51%.

First: Cc1ccc(-c2nc(C#N)c(N(C)C)o2)cc1
Second: Cc1nc(C#N)c(NCc2ccccc2Cl)o1
The Inhibition % of the first is higher: 5.8% for the first, 4.52% for the second.

Compared with `C=CC(=O)NC1CCN(c2ccc(C(F)(F)F)cc2)C1` (stereo not shown), `C=CC(=O)N1CCC(OCc2ccc(F)cc2)CC1` is higher in Inhibition %: 4.59% for the first, 8.91% for the second.

Compared with `Cn1nccc1C=CC(=O)N1CCCC(C(F)(F)F)C1` (stereo not shown), `CC1CCN(C(=O)C=Cc2cnn(C)c2)C2CCCCC12` (stereo not shown) is lower in Inhibition %: 4.49% for the first, -3.16% for the second.

Going from `Cl.ClCCCN1CCN(c2ccccc2)CC1` to `C=CC(=O)N1CCN(c2ncccn2)CC1`, the Inhibition % rises from 3.99% to 9.58%.

Going from `CCn1cnnc1SC1CC(C)OC1=O` (stereo not shown) to `CC(c1ccc(F)cc1)N(C)C(=O)Cn1cnc(C#N)n1` (stereo not shown), the Inhibition % rises from 2.55% to 11.3%.

Compared with `CCOCCSc1nccnc1C#N`, `CC(C)Cc1nc(C#N)c(NCc2cccnc2)o1` is higher in Inhibition %: 7.01% for the first, 7.87% for the second.

First: C=CC(=O)N1CCn2c(nc(C)c2C)C1
Second: C=CC(=O)N1CCN(Cc2cc(Cl)ccc2OC)CC1
The Inhibition % of the first is lower: 4.47% for the first, 6.99% for the second.

Compared with `N#Cc1ncn(CC(=O)Nc2ccc(F)c(F)c2)n1`, `N#CN(CC(=O)NC1CC1)c1ccc(F)c(Cl)c1` is higher in Inhibition %: 2.19% for the first, 5.92% for the second.

Compared with `C=CC(=O)N1CCN(CC(O)c2ccco2)CC1` (stereo not shown), `C=CC(=O)N1CCC(Cc2ncc(C(=O)O)s2)CC1` is lower in Inhibition %: 14.4% for the first, 12.7% for the second.

Going from `C=CC(=O)NC[C@@H]1CN(C)C(=O)O1` to `C=CC(=O)NC1C(C)CCCC1C` (stereo not shown), the Inhibition % falls from 11.4% to 4.93%.

Going from `C=CC(=O)N1CCN(C2CC3CCC2C3)CC1` (stereo not shown) to `C=CC(=O)N1CCCC2(CCSCC2)C1`, the Inhibition % rises from 7.14% to 13.5%.

Compared with `CC1(C)OB(c2ccc(C3CCC(=O)N3)cc2)OC1(C)C` (stereo not shown), `O=C1COc2ccc(C(=O)CCl)cc2N1` is higher in Inhibition %: 6.79% for the first, 8.16% for the second.

Going from `N#CC(=Cc1cc2cc(F)ccc2o1)C(N)=O` to `N#CCCN(C(=O)CCl)c1ccc(F)cc1`, the Inhibition % rises from 6.05% to 9.41%.

First: Cl.N[C@@H]1CC[C@H](CS(=O)(=O)F)C1 (racemic)
Second: CN(CCS(=O)(=O)F)S(=O)(=O)c1cccs1
The Inhibition % of the first is higher: 22.9% for the first, 22.7% for the second.

Compared with `CCCC(C#N)NS(=O)(=O)c1ccc(S(=O)(=O)F)cc1` (stereo not shown), `NS(=O)(=O)c1ccc(CNC(=O)CCl)cc1` is lower in Inhibition %: 33.3% for the first, 1.02% for the second.

First: COCc1cccc(Nc2ccnc(C#N)c2)c1
Second: N#CC=C1C(=O)Nc2ccccc21
The Inhibition % of the first is lower: 5.84% for the first, 24.9% for the second.

Compared with `CC(C)C1NC(=O)C1C(C)C` (stereo not shown), `O=C1NC(=O)C(CS)N1` (stereo not shown) is higher in Inhibition %: 1.77% for the first, 84.8% for the second.

Going from `O=C(CCl)NCc1cc(F)cc(F)c1` to `O=C(CCl)NCCOc1ccc(F)cc1`, the Inhibition % rises from 3.54% to 12.3%.

Compared with `CCC(C)(C)C1CCC(NC(=O)CCl)CC1` (stereo not shown), `O=C(CC1C=CS(=O)(=O)C1)NCc1ccccc1Cl` (stereo not shown) is lower in Inhibition %: 30.7% for the first, 11.4% for the second.

First: C=CC(=O)N1CCOC2(CCCCCC2)C1
Second: C=CC(=O)N1CCOC(c2ccc(F)c(C)c2)C1 (stereo not shown)
The Inhibition % of the first is higher: 11.5% for the first, 4.78% for the second.

Going from `Cc1noc(C)c1S(=O)(=O)Oc1ccc(F)cc1Cl` to `CC(C)NC(=O)CN(C)c1ccc(Cl)c(C#N)n1`, the Inhibition % falls from 7.55% to 0.332%.
